The list shows a part of the results. The energies were worked out here from pooled read counts, against the library average; single values are noisy.

This experiment addresses T1, Pho4 (S. cerevisiae) (UniProt P07270).
T1 sequence: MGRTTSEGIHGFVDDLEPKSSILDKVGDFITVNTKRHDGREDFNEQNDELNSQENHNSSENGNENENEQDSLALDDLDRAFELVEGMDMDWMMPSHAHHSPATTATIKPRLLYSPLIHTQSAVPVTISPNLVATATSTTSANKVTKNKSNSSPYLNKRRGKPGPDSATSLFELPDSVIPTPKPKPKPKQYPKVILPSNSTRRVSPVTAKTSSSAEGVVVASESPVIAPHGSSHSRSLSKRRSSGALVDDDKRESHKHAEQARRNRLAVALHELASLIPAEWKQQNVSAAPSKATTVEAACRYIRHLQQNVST
The experiment can be described thus: relative binding free energy (BET-seq); higher = weaker binding. Particulars: reference: library average.
On to TCTCTCACGTGGTGTT, for which the “relative binding free energy” value turned out to be 0.21 kcal/mol. For ATGAACACGTGATGTG the value was 0.14 kcal/mol.

Turning to GCGTGCACGTGCGGGT, the “relative binding free energy” value is -0.01 kcal/mol. The same measure for ATAGTCACGTGTCTTA: 0.11 kcal/mol; for GTTCGCACGTGGTGCA: -0.06 kcal/mol. Consider ATTGGCACGTGTCGAT, for which the “relative binding free energy” value is -0.14 kcal/mol. In the case of TGTGGCACGTGTTAAT, the “relative binding free energy” value is -0.02 kcal/mol. As to AGAGTCACGTGGTTTC, the “relative binding free energy” value was found to be 0.13 kcal/mol. In the case of GGAGTCACGTGAAGGC, the “relative binding free energy” value worked out at 0.46 kcal/mol. As to GACGTCACGTGCTGGT, the “relative binding free energy” value came out at 0.05 kcal/mol. For TGGGCCACGTGGTTAA, the “relative binding free energy” value is -0.03 kcal/mol.

For the sequence AATTACACGTGCTGTG, the “relative binding free energy” value came to 0.02 kcal/mol. For TTATGCACGTGGATGA the value was -0.06 kcal/mol; for ATTTTCACGTGAATTG, 0.33 kcal/mol. For CTTGGCACGTGAGTTT the value was 0.07 kcal/mol. With TGCATCACGTGGGTAT, the “relative binding free energy” value turned out to be 0 kcal/mol. On to TCAGCCACGTGGGGGT, for which the “relative binding free energy” value was -0.27 kcal/mol. For AGAGTCACGTGTGAAT the value was 0.22 kcal/mol.

As to ACGGTCACGTGGGGGG, the “relative binding free energy” value is -0.19 kcal/mol. For the sequence GGATTCACGTGTTAAG, the “relative binding free energy” value worked out at 0.42 kcal/mol. Take GAGTTCACGTGGGAGA: the “relative binding free energy” value was found to be 0.25 kcal/mol.

As for CTGATCACGTGTTAAG, the “relative binding free energy” value was 0.21 kcal/mol.

Take TAGTGCACGTGCATAT: the “relative binding free energy” value amounted to 0 kcal/mol. Turning to GGTCGCACGTGTGGCT, the “relative binding free energy” value was determined as 0.02 kcal/mol. For TGGACCACGTGTGAGT the value was 0.05 kcal/mol; for GTGACCACGTGTGGGT, 0.06 kcal/mol. For GATGCCACGTGTCGTG the value was 0.1 kcal/mol; for TAGGACACGTGTTAGT, 0.04 kcal/mol. For TCAGGCACGTGTGTTC the value was -0.02 kcal/mol. For the sequence TGGGCCACGTGGTGGA, the “relative binding free energy” value was -0.16 kcal/mol. Regarding GTGAACACGTGGCTGT, the “relative binding free energy” value was -0.05 kcal/mol.

As for TAATTCACGTGTGATT, the “relative binding free energy” value turned out to be 0.38 kcal/mol. The same measure for GGTCGCACGTGAAGTG: 0.27 kcal/mol. For AGGTGCACGTGTATGT the value was -0.04 kcal/mol.

For the sequence CTGCGCACGTGGTTAG, the “relative binding free energy” value was -0.18 kcal/mol.

As for TAGGTCACGTGTCCGG, the “relative binding free energy” value was determined as 0.01 kcal/mol. Turning to GGCAGCACGTGAGTGA, the “relative binding free energy” value came out at 0.22 kcal/mol. As to AACAGCACGTGAGGGG, the “relative binding free energy” value amounted to 0.11 kcal/mol.

On to TGGTGCACGTGCTAGA, for which the “relative binding free energy” value was -0.03 kcal/mol. For GGGAGCACGTGAATAG, the “relative binding free energy” value is 0.3 kcal/mol.

For TTACTCACGTGGTATA, the “relative binding free energy” value is 0.14 kcal/mol. Turning to TAGGTCACGTGCTGTA, the “relative binding free energy” value worked out at 0.04 kcal/mol. GTGAGCACGTGTTAGG: the “relative binding free energy” value is -0.08 kcal/mol. The same measure for GCGGTCACGTGGGGGG: 0.03 kcal/mol; for TTGTCCACGTGATGGG: 0.31 kcal/mol; for CGGTTCACGTGTATAA: 0.3 kcal/mol. As to TTGTACACGTGGGTGA, the “relative binding free energy” value amounted to 0.03 kcal/mol. For GTTTACACGTGGCGTC, the “relative binding free energy” value came to 0.19 kcal/mol. The same measure for TATTTCACGTGTGTAG: 0.32 kcal/mol. For the sequence GAGTTCACGTGAGCGC, the “relative binding free energy” value was 0.78 kcal/mol. As to TGACACACGTGGGGGA, the “relative binding free energy” value is -0.22 kcal/mol.

For AAGGGCACGTGGGCAT, the “relative binding free energy” value is -0.32 kcal/mol.

With GTGATCACGTGTTGCG, the “relative binding free energy” value stood at 0.12 kcal/mol. For ATATTCACGTGCAGGT the value was 0.17 kcal/mol; for GTGCACACGTGAGTTT, 0.29 kcal/mol; for TTGGGCACGTGGGGAT, -0.19 kcal/mol.

TAGTTCACGTGATCTT: the “relative binding free energy” value is 0.34 kcal/mol. The same measure for AGGTGCACGTGCCGTG: -0.18 kcal/mol; for AATATCACGTGGGGAG: 0.05 kcal/mol. For CGAAGCACGTGTTTGT the value was -0.1 kcal/mol; for TTTAGCACGTGTGCAA, -0.08 kcal/mol; for TGATTCACGTGATATA, 0.17 kcal/mol. For the sequence GATTCCACGTGAGGGT, the “relative binding free energy” value is 0.39 kcal/mol. For CAGGACACGTGCGGGT the value was -0.03 kcal/mol; for TTTTGCACGTGACTGA, 0.16 kcal/mol.

As to GGTTGCACGTGGTTGA, the “relative binding free energy” value was 0.11 kcal/mol. The same measure for TTTAACACGTGATTCT: 0.24 kcal/mol; for GTGGTCACGTGGGGGC: 0.07 kcal/mol; for AAAGGCACGTGGTTTA: -0.21 kcal/mol.

For the sequence CGTGCCACGTGGTTGT, the “relative binding free energy” value is -0.27 kcal/mol. The same measure for TGGCTCACGTGTTATT: 0.14 kcal/mol; for AGTCACACGTGTGGGC: 0.18 kcal/mol; for TCTTGCACGTGTAGAG: 0.12 kcal/mol.

Take AAGTTCACGTGTTGTC: the “relative binding free energy” value amounted to 0.26 kcal/mol. For GCGAACACGTGGAGTG, the “relative binding free energy” value is 0.18 kcal/mol. On to GGTTACACGTGGTTGT, for which the “relative binding free energy” value worked out at 0.19 kcal/mol. For TTTGCCACGTGTAATA the value was 0.12 kcal/mol; for GTGGCCACGTGGTGAT, -0.06 kcal/mol; for CTTTGCACGTGGGCAG, -0.14 kcal/mol. For CTGTGCACGTGTTTTA the value was -0.2 kcal/mol. For TTTGGCACGTGAGGGA the value was 0.11 kcal/mol; for GATGTCACGTGTTTCG, 0.09 kcal/mol.

Take GAATGCACGTGAGGGG: the “relative binding free energy” value came out at 0.15 kcal/mol.

In the case of ATTGCCACGTGTATAG, the “relative binding free energy” value was -0.07 kcal/mol.

In the case of TTGTCCACGTGTTGAG, the “relative binding free energy” value stood at 0.06 kcal/mol. Turning to TATGGCACGTGTCTTG, the “relative binding free energy” value was -0.14 kcal/mol.

Take GATGTCACGTGGAGTA: the “relative binding free energy” value worked out at 0.15 kcal/mol. Turning to TAAGTCACGTGAGTGC, the “relative binding free energy” value came out at 0.11 kcal/mol.

On to GGTCGCACGTGGTAGA, for which the “relative binding free energy” value is -0.21 kcal/mol. Consider ATTTCCACGTGTGCTT, for which the “relative binding free energy” value amounted to 0.18 kcal/mol.

Take TACTTCACGTGAAAGT: the “relative binding free energy” value was found to be 0.5 kcal/mol. The same measure for TTTAGCACGTGGACTT: -0.04 kcal/mol; for GGAAGCACGTGATGTT: 0.02 kcal/mol. The same measure for GTGCACACGTGTTTAG: 0.03 kcal/mol. The same measure for CGCTTCACGTGGGTAG: 0.1 kcal/mol; for TAGAACACGTGGGGCT: -0.15 kcal/mol; for TGGCGCACGTGTTTTT: -0.08 kcal/mol. For the sequence AGGGACACGTGTCGGC, the “relative binding free energy” value amounted to 0.05 kcal/mol. For AATGGCACGTGTTGGA the value was -0.06 kcal/mol. For TCGTGCACGTGGAGTT, the “relative binding free energy” value was -0.05 kcal/mol. Consider CGATTCACGTGATGTG, for which the “relative binding free energy” value amounted to 0.33 kcal/mol.

Turning to TATGGCACGTGTTCTG, the “relative binding free energy” value was -0.05 kcal/mol. The same measure for GTTCTCACGTGGGGGC: 0.12 kcal/mol; for TTGTGCACGTGTGTCG: -0.04 kcal/mol. Take TTCGACACGTGTTAAT: the “relative binding free energy” value was determined as 0.09 kcal/mol.

For the sequence TTGCTCACGTGCGTGA, the “relative binding free energy” value was 0.15 kcal/mol. The same measure for TAGTACACGTGTGGGA: 0.19 kcal/mol; for GGCTTCACGTGAGGGG: 0.41 kcal/mol. In the case of GGCTTCACGTGAGTGG, the “relative binding free energy” value worked out at 0.49 kcal/mol. For TCAAGCACGTGTGGTG the value was -0.1 kcal/mol; for ATATACACGTGTCTGG, -0.01 kcal/mol. The same measure for GGCTACACGTGGTTTT: 0.12 kcal/mol; for GTAGTCACGTGCTGTT: -0.01 kcal/mol. Regarding TCGTTCACGTGTGCAT, the “relative binding free energy” value stood at 0.43 kcal/mol. For TTTATCACGTGGGATT the value was 0.13 kcal/mol.
